In the BET-seq Pho4 binding data (Le et al. 2018):
Some of the results follow. Values were computed here from the reads of four pooled replicates and scatter widely.

These sequences were tested against T1, Pho4 (S. cerevisiae) (UniProt P07270) (assay: relative binding free energy (BET-seq); higher = weaker binding). Conditions: reference: library average.
T1 sequence: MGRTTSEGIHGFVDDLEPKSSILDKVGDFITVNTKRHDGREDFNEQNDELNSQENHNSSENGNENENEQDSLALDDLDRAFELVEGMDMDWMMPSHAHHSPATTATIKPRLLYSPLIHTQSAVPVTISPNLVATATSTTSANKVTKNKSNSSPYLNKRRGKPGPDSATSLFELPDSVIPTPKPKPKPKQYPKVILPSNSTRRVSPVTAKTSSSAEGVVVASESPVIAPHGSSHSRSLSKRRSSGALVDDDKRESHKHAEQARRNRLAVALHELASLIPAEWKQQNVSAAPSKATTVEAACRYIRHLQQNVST

| Sequence | relative binding free energy [kcal/mol] |
| --- | --- |
| CGTTTCACGTGGATGA | 0.28 |
| AGTGCCACGTGTTGTG | -0.06 |
| TGAGGCACGTGGGGTG | -0.21 |
| GTTTCCACGTGTTTCT | 0.16 |
| TGAGACACGTGTTGGC | -0.09 |
| TCTATCACGTGTGTAA | 0.13 |
| GAAGGCACGTGTTGTG | 0 |
| CTTGGCACGTGTATTT | -0.09 |
| AGTCGCACGTGGTAAT | -0.11 |
| GATTACACGTGTGGTT | 0.27 |
| TGTTTCACGTGTGATG | 0.34 |
| TTTGACACGTGTAGCT | 0.08 |
| TTTTACACGTGGGACA | 0.05 |
| ATTGACACGTGCATTG | 0.1 |
| TGTTTCACGTGGGCCT | 0.14 |
| ATGAGCACGTGAGGGC | 0.18 |
| ATAGACACGTGTGATG | 0.03 |
| GGTGTCACGTGTATCT | 0 |
| GTTTGCACGTGCATCT | 0.07 |
| GGTGTCACGTGGCTGC | 0 |
| GGGTGCACGTGGAGGA | 0.01 |
| TGAATCACGTGGTCGT | 0.02 |
| GGTATCACGTGAGGCT | 0.22 |

| Sequence | relative binding free energy [kcal/mol] |
| --- | --- |
| TGCTACACGTGTGTAA | 0.09 |
| TATTTCACGTGGCTCT | 0.14 |
| GGTGGCACGTGGTCCT | -0.1 |
| GGTTGCACGTGTGGCC | 0.08 |
| ATTATCACGTGTCGAT | 0.27 |
| TTCATCACGTGAATGT | 0.36 |
| ATTTTCACGTGGTCCG | 0.14 |
| CATTTCACGTGGAGGG | 0.19 |
| TTGGGCACGTGATTTC | -0.07 |
| AGTGTCACGTGTAGAG | 0.07 |
| GGAGACACGTGGCTTG | -0.06 |
| TCTTGCACGTGGGGTA | -0.11 |
| TCTGTCACGTGAAGTG | 0.26 |
| TGAGTCACGTGGTCGT | 0.05 |
| AGTCACACGTGGGGCT | 0.05 |
| CTATTCACGTGAATTT | 0.46 |
| AGATACACGTGATGTA | 0.06 |
| TATTGCACGTGATGCT | 0 |
| AACGTCACGTGGTGGG | 0 |
| GAGGTCACGTGCAAGG | 0.06 |
| ATTTGCACGTGGGGGT | -0.07 |
| TCTTTCACGTGTTCTT | 0.06 |
| TCGGACACGTGATGTT | 0.29 |

| Sequence | relative binding free energy [kcal/mol] |
| --- | --- |
| TATATCACGTGTTTTT | 0.13 |
| GGTGTCACGTGGAGTG | 0.17 |
| TTGCGCACGTGTAGGT | 0.04 |
| TGGATCACGTGAAGTG | 0.31 |
| CGTTGCACGTGGTATG | -0.18 |
| GACGTCACGTGGTGTT | 0.16 |
| AGGTGCACGTGGGACT | -0.14 |
| TAGTTCACGTGGTCGC | 0.35 |
| ACGTTCACGTGAGGTT | 0.44 |
| AGGGTCACGTGGGCTG | 0 |
| GTAGGCACGTGAGGGT | 0.26 |
| TCTGTCACGTGTGGCT | 0.24 |
| ATTGGCACGTGTGACA | 0.03 |
| GGCAGCACGTGGTGGA | -0.05 |
| AGAAGCACGTGATGGA | 0.14 |
| ACTTTCACGTGTTGGA | 0.3 |
| TGTGGCACGTGATAAG | -0.15 |
| GTCGGCACGTGGTGCT | -0.11 |
| GGGTTCACGTGTCGAG | 0.31 |
| AGCAGCACGTGTGCGG | -0.1 |
| CTGGCCACGTGAGAGT | 0.29 |
| CTCGGCACGTGGAAGT | 0.06 |
| GTTAACACGTGCCGGT | 0.03 |

| Sequence | relative binding free energy [kcal/mol] |
| --- | --- |
| GTTTACACGTGGATAG | 0.06 |
| TATGACACGTGGACTT | 0.1 |
| GGTGCCACGTGAGGGC | 0.05 |
| GTGTGCACGTGGTTTA | 0 |
| ATAGGCACGTGTGTGA | -0.12 |
| ATGCGCACGTGTAGGG | -0.14 |
| TGGAGCACGTGTCGGG | -0.15 |
| ACTTACACGTGGTTGA | 0.1 |
| TGCTCCACGTGTGAGG | 0.06 |
| ATTGGCACGTGAAGGC | 0.06 |
| TGCAGCACGTGGTCGG | -0.23 |
| ATGGGCACGTGGTATC | -0.17 |
| TGGATCACGTGTGAGG | 0.19 |
| CTGAGCACGTGGAGTG | -0.03 |
| ACGGTCACGTGGTGGC | 0.15 |
| TCAGGCACGTGTGTAA | -0.05 |
| TGGTCCACGTGGTGCA | -0.06 |
| TGTTTCACGTGGTTGG | 0.28 |
| TGTGGCACGTGATTGT | 0.09 |
| CTGGACACGTGGGTAG | -0.03 |
| TAGGGCACGTGTCTGT | -0.04 |
| TTGTACACGTGTAGTT | 0.11 |
| ATATGCACGTGGATGC | -0.01 |

| Sequence | relative binding free energy [kcal/mol] |
| --- | --- |
| TTCGGCACGTGGAGTT | -0.1 |
| AAATTCACGTGTCTGT | 0.27 |
| GGTATCACGTGGTTAC | 0.15 |
| GCGATCACGTGGGGGG | 0.16 |
| AGTTTCACGTGATAAA | 0.23 |
| ATATACACGTGTTGTT | 0.03 |
| AAATTCACGTGAAGTG | 0.29 |
| TTTCACACGTGTTAAT | 0.21 |
| GTTCTCACGTGTTACG | 0.36 |
| AATAGCACGTGGGTGA | -0.3 |
| TTTATCACGTGTTCAA | 0.04 |
| GGCGTCACGTGGGAAT | 0.19 |
| GGTCCCACGTGTTGTG | -0.12 |
| CGGGGCACGTGTTGTG | -0.21 |
| TAATGCACGTGTGTGC | 0.06 |
| TGAATCACGTGTGAGA | 0.17 |
| CTTGGCACGTGTGAGC | -0.05 |
| ACGGGCACGTGTTGGA | -0.01 |
| TTTAACACGTGTTCAT | 0.04 |
| GGTAGCACGTGGTCTG | -0.18 |
| TTTAACACGTGTGGGG | 0.14 |
| TAGTTCACGTGCTATG | 0.12 |
| GGTGCCACGTGTAGGG | 0 |
